From the supplement of paper PMC4967469
IC50 is the fitted dose that halves viability relative to control wells, and lower means more sensitive; where the fit passes the top or lowest dose, that dose stands as a limit. AUC is the area under the same curve over the 256-fold range up to the top dose, as a fraction; the more sensitive the line, the further below 1. A top dose marked as inferred was calculated from the reported fits.

How the values were obtained:
Assay in all cases: Viability of human cancer cell lines after 72 h of drug (GDSC screen)
[1] = compound: CCN1CCC(n2cc(CNc3cc(Cl)c4ncc(C#N)c(Nc5ccc(F)c(Cl)c5)c4c3)nn2)CC1 [KIN001-266]; settings: top dose 20 µM; top dose inferred
Method: (§1)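 Human cancer cell lines in 384-well plates, medium with 10% serum, drug for 72 h over a 256-fold dose range (nine 2-fold or five 4-fold steps up to the top dose). Adherent lines were fixed and stained with the nucleic acid dye Syto60, suspension lines read with resazurin; signal relative to control wells, capped at 0 and 100%. One two-parameter sigmoid per drug and line, fitted in a mixed model over all curves with the slope shared within a line.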

[2] = compound: O=C1/C(=C/c2cccs2)CC/C1=C\c1cccs1 [CCT007093]; settings: top dose 6.6 µM; top dose inferred
Method: as §1

[3] = compound: C=CC(=O)N1CCc2ccc(-n3c(=O)ccc4cnc5ccc(-c6cnn(C)c6)cc5c43)cc21 [QL-XII-47]; settings: top dose 10.24 µM; top dose inferred
Method: as §1

[4] = compound: COc1ccc(-c2cc3nccn3c(Nc3ncccc3C(N)=O)n2)cc1OC [BAY 61-3606]; settings: top dose 8 µM; top dose inferred
Method: as §1

Row | Cell Line | AUC [1] | IC50 [1] [µM] | AUC [2] | IC50 [2] [µM] | AUC [3] | IC50 [3] [µM] | AUC [4] | IC50 [4] [µM]
1 | CA46 (Burkitt lymphoma, suspension) | 0.804 | 10.9 | 0.961 | > 6.6 | 0.478 | 0.555 | 0.643 | 1.28
2 | CAKI-1 (kidney, adherent) | 0.86 | > 20 | 0.964 | > 6.6 | 0.621 | 1.63 | 0.713 | 2.73
3 | CAL-12T (non-small cell lung carcinoma, adherent) | 0.837 | 15.7 | 0.97 | > 6.6 | 0.349 | 0.232 | 0.511 | 0.537
4 | CAL-27 (head and neck, adherent) | 0.904 | > 20 | 0.986 | > 6.6 | 0.799 | 5.04 | 0.813 | 4.42
5 | CAL-29 (bladder, adherent) | 0.854 | 17.6 | 0.963 | > 6.6 | 0.904 | > 10.2 | 0.919 | > 8
6 | CAL-33 (head and neck, adherent) | 0.948 | > 20 | 0.944 | > 6.6 | 0.635 | 1.51 | 0.892 | > 8
7 | CAL-39 (cervix, adherent) | 0.959 | > 20 | 0.967 | > 6.6 | 0.755 | 3.6 | 0.772 | 3.21
8 | CAL-51 (breast, adherent) | 0.978 | > 20 | 0.99 | > 6.6 | 0.915 | > 10.2 | 0.808 | 3.48
9 | CAL-54 (kidney, adherent) | 0.975 | > 20 | 0.982 | > 6.6 | 0.83 | 7.74 | 0.915 | > 8
10 | CAL-72 (osteosarcoma, adherent) | 0.983 | > 20 | 0.984 | > 6.6 | 0.982 | > 10.2 | 0.98 | > 8
11 | CAL-78 (chondrosarcoma, adherent) | 0.917 | > 20 | 0.981 | > 6.6 | 0.986 | > 10.2 | 0.986 | > 8
12 | CAL-85-1 (breast, adherent) | 0.839 | 19.6 | 0.981 | > 6.6 | 0.761 | 4.64 | 0.779 | 4.24
13 | CAL-120 (breast, adherent) | 0.878 | > 20 | 0.98 | > 6.6 | 0.842 | > 10.2 | 0.861 | > 8
14 | CAMA-1 (breast, adherent) | 0.861 | > 20 | 0.939 | > 6.6 | 0.743 | 3.88 | 0.962 | > 8
15 | CAPAN-1 (pancreas, adherent) | 0.969 | > 20 | 0.97 | > 6.6 | 0.892 | > 10.2 | 0.794 | 
16 | CCF-STTG1 (glioma, adherent) | 0.876 | > 20 | 0.988 | > 6.6 | 0.988 | > 10.2 | 0.865 | 7.17
17 | CCK-81 (large intestine, adherent) | 0.86 | 15.2 | 0.986 | > 6.6 | 0.639 | 1.51 | 0.928 | > 8
18 | CCRF-CEM (lymphoblastic leukaemia, suspension) | 0.853 | 11.8 | 0.989 | > 6.6 | 0.672 | 1.76 | 0.73 | 
19 | CESS (acute myeloid leukaemia, suspension) | 0.804 | 8.34 | 0.991 | > 6.6 | 0.487 | 0.593 | 0.69 | 1.56
20 | CFPAC-1 (pancreas, adherent) | 0.878 | > 20 | 0.981 | > 6.6 | 0.749 | 3.75 | 0.854 | 7.83
21 | CGTH-W-1 (thyroid, adherent) | 0.872 | 18.7 | 0.98 | > 6.6 | 0.911 | > 10.2 | 0.752 | 2.63
22 | CHL-1 (melanoma, adherent) | 0.873 | 17.4 | 0.983 | > 6.6 | 0.624 | 1.38 | 0.689 | 1.63
23 | CHP-212 (neuroblastoma, adherent) | 0.985 | > 20 | 0.98 | > 6.6 | 0.576 | 1.02 | 0.871 | 6.58
24 | CHSA0011 (chondrosarcoma, adherent) | 0.958 | > 20 | 0.931 | > 6.6 | 0.851 | > 10.2 | 0.923 | > 8
25 | CHSA0108 (chondrosarcoma, adherent) | 0.579 | 2.13 | 0.984 | > 6.6 | 0.898 | > 10.2 | 0.953 | > 8
26 | CHSA8926 (chondrosarcoma, adherent) | 0.98 | > 20 | 0.98 | > 6.6 | 0.833 | > 10.2 | 0.98 | > 8
27 | CL-11 (large intestine, adherent) | 0.904 | > 20 | 0.982 | > 6.6 | 0.968 | > 10.2 | 0.987 | > 8
28 | CMK (acute myeloid leukaemia, suspension) | 0.835 | 10.4 | 0.972 | > 6.6 | 0.424 | 0.41 | 0.573 | 0.764
29 | COLO-205 (large intestine, suspension) | 0.873 | 18.7 | 0.975 | > 6.6 | 0.911 | > 10.2 | 0.735 | 2.31
30 | COLO-320-HSR (large intestine, suspension) | 0.868 | 14.3 | 0.988 | > 6.6 | 0.583 | 1.05 | 0.79 | 3.06
